Measurements as given in a collection of fitness landscapes (doi:10.1126/science.1257360).
This is one part of the list.

B1: PhoQ; a variant is named by its letters at X, in order, P23837 (parent)
chain: MKKLLRLFFPLSLRVRFLLATAAVVLVLSLAYGMVALIGYSVSFDKTTFRLLRGESNLFYTLAKWENNKLHVELPENIDKQSPTMTLIYDENGQLLWAQRDVPWLMKMIQPDWLKSNGFHEIEADVNDTSLLLSGDHSIQQQLQEVREDDDDAEMTHSVAVNVYPATSRMPKLTIVVVDTIPVELKSSYMVWSWFIYVLSANLLLVIPLLWVAAWWSLRPIEALAKEVRELEEHNRELLNPATTRELTSLVRNLNRLLKSERERYDKYRTTLTDLTHSLKTPLXXLQXXLRSLRSEKMSVSDAEPVMLEQISRISQQIGYYLHRASMRGGTLLSRELHPVAPLLDNLTSALNKVYQRKGVNISLDISPEISFVGEQNDFVEVMGNVLDNACKYCLEFVEISARQTDEHLYIVVEDDGPGIPLSKREVIFDRGQRVDTLRPGQGVGLAVAREITEQYEGKIVAGESMLGGARMEVIFGRQHSAPKDE

Variants of: B1
Experiment: enrichment ratio after two sorts for PhoP signalling (ratio (wild type AVST 3.29)); higher = more functional
Details: with PhoP (E. coli)

Variant | enrichment ratio
PMHG | ≤ 0.25
DRMS | ≤ 0.25
KGNA | ≤ 0.25
TYMS | ≤ 0.25
WMNK | ≤ 0.25
FPFR | ≤ 0.25
YTEP | ≤ 0.25
HLGC | ≤ 0.25
VQRY | ≤ 0.25
LHHN | ≤ 0.25
HTKA | ≤ 0.25
GWRL | ≤ 0.25
RFQF | 0.945
PDES | ≤ 0.25
RQRY | ≤ 0.25
FYQH | ≤ 0.25
DVDL | ≤ 0.25
MLET | ≤ 0.25
KMEG | ≤ 0.25
SALA | 5.84
GRHQ | ≤ 0.25
AWVW | ≤ 0.25
SVIR | ≤ 0.25
AVEL | ≤ 0.25
YFSA | ≤ 0.25

Variant | enrichment ratio
HKKE | ≤ 0.25
ARGY | ≤ 0.25
AGLD | ≤ 0.25
VTKW | ≤ 0.25
INWR | ≤ 0.25
LMSH | ≤ 0.25
FMAV | ≤ 0.25
NFQE | ≤ 0.25
MSVC | 4.31
YIQC | ≤ 0.25
YSYG | ≤ 0.25
GHDD | ≤ 0.25
KAHL | ≤ 0.25
PGSV | ≤ 0.25
WSWL | ≤ 0.25
ASIM | 14.6
YFSR | ≤ 0.25
QIFV | ≤ 0.25
PCEW | ≤ 0.25
NYAD | ≤ 0.25
DCWL | ≤ 0.25
MCDV | ≤ 0.25
LKVR | ≤ 0.25
NMVM | ≤ 0.25
HNLL | ≤ 0.25

Variant | enrichment ratio
EPFC | ≤ 0.25
YFFF | ≤ 0.25
WPGY | ≤ 0.25
YHNG | ≤ 0.25
RSWV | ≤ 0.25
HWLQ | ≤ 0.25
RMQQ | ≤ 0.25
SECT | 24.6
QEHA | ≤ 0.25
HIWD | ≤ 0.25
DQAT | ≤ 0.25
PCQG | ≤ 0.25
TPCV | ≤ 0.25
IPCR | ≤ 0.25
YFYQ | ≤ 0.25
SCAK | 6.01
AQPW | ≤ 0.25
YKIG | ≤ 0.25
TDFS | 0.74
LQHW | ≤ 0.25
LALQ | 1.26
KRRY | ≤ 0.25
PYDN | ≤ 0.25
IIHS | ≤ 0.25
VQIT | ≤ 0.25

Variant | enrichment ratio
MEQY | ≤ 0.25
NLTN | ≤ 0.25
MVLV | 9.51
STLL | 16.4
PGNF | ≤ 0.25
LIGM | ≤ 0.25
TNRV | ≤ 0.25
SRME | ≤ 0.25
AMNG | ≤ 0.25
WFPI | ≤ 0.25
ECYH | ≤ 0.25
PPNS | ≤ 0.25
WCHY | ≤ 0.25
DVQY | ≤ 0.25
QKVH | ≤ 0.25
HFSI | ≤ 0.25
NQKL | ≤ 0.25
LYLT | ≤ 0.25
KVEK | ≤ 0.25
AKNN | ≤ 0.25
LLEL | ≤ 0.25
YYGM | ≤ 0.25
VPFH | ≤ 0.25
FWFM | ≤ 0.25
DRCA | ≤ 0.25

Variant | enrichment ratio
RCQW | ≤ 0.25
LWQA | ≤ 0.25
STDM | ≤ 0.25
HHKR | ≤ 0.25
QMLN | ≤ 0.25
WAHY | ≤ 0.25
NIEL | ≤ 0.25
FWTQ | ≤ 0.25
RYVI | ≤ 0.25
ESSS | ≤ 0.25
LMWF | ≤ 0.25
SVTF | 7.48
SYHF | ≤ 0.25
NSMV | ≤ 0.25
PSQV | ≤ 0.25
QVTI | ≤ 0.25
PYFW | ≤ 0.25
SRWE | ≤ 0.25
TSHM | 9.31
GDSK | ≤ 0.25
QGYA | 9.47
IWVD | ≤ 0.25
LDSK | ≤ 0.25
TYAS | 2.63
PPID | ≤ 0.25

Variant | enrichment ratio
FHNE | ≤ 0.25
QCLW | ≤ 0.25
YRGW | ≤ 0.25
HKDL | ≤ 0.25
HLTY | ≤ 0.25
MQLN | ≤ 0.25
STWT | ≤ 0.25
FLSY | ≤ 0.25
GTKI | ≤ 0.25
TSLL | 14
ISMC | 3.34
MLKG | ≤ 0.25
WDKE | ≤ 0.25
KYEI | ≤ 0.25
LQVD | ≤ 0.25
ERAM | ≤ 0.25
DHRH | ≤ 0.25
YHKP | ≤ 0.25
ELQI | ≤ 0.25
KTDQ | ≤ 0.25
FEKV | ≤ 0.25
LCHV | ≤ 0.25
EMAS | ≤ 0.25
PSPD | ≤ 0.25
PNRY | ≤ 0.25

Variant | enrichment ratio
YLHV | ≤ 0.25
SMCY | 11.6
SSVS | 10.6
ISQW | ≤ 0.25
QKAV | ≤ 0.25
QAHG | ≤ 0.25
FGAN | ≤ 0.25
YNCP | 1.11
VHPF | ≤ 0.25
HKNC | ≤ 0.25
SDKP | ≤ 0.25
VWSH | ≤ 0.25
VGTE | ≤ 0.25
FYIV | ≤ 0.25
GSRC | ≤ 0.25
YIYE | ≤ 0.25
STAN | 1.11
YCYC | ≤ 0.25
VSAE | ≤ 0.25
VVHM | ≤ 0.25
TWQG | ≤ 0.25
TAPK | ≤ 0.25
MQLL | 6.74
HVQF | ≤ 0.25
PDDQ | ≤ 0.25

Variant | enrichment ratio
FKAN | ≤ 0.25
YIIR | ≤ 0.25
APFK | ≤ 0.25
LSRM | ≤ 0.25
ASKF | ≤ 0.25
THGM | 12.3
PCSY | ≤ 0.25
WCQR | ≤ 0.25
LYVH | ≤ 0.25
QMWH | ≤ 0.25
WVWA | ≤ 0.25
HIRW | ≤ 0.25
TIKA | ≤ 0.25
TPNN | ≤ 0.25
GYHA | ≤ 0.25
VYMD | ≤ 0.25
FIGL | ≤ 0.25
DLWT | ≤ 0.25
PSRA | ≤ 0.25
KIRI | ≤ 0.25
